Assay results: US20100111965A1, “COMBINATION THERAPY” (FUSION ANTIBODIES LIMITED, priority 2006, published 2010)

Tests used:
H460 lung carcinoma cell = experiment: MTT assay, H460 lung carcinoma cell proliferation; assay type: cell-based; conditions: 25 nM, 50 nM or 100 nM antibody, 48 hours, against isotypic control antibody
Experimental: FIG. 32 illustrates H460 lung carcinoma cell proliferation following treatment with different concentrations of AREG (6E11 1E9 106) antibody or an isotype control antibody. Cells were seeded 24 hours before treatment with either 25 nM, 50 nM or 100 nM antibody. Cell viability was assayed 48 hours after treatment by MTT assay.
Cell viability was assessed by 3-(4,5-dimethylthiazol-2-yl)-2,5-diphenyltetrazolium bromide (MTT, Sigma) assay (Mosmann, T. 1983. J. Immunol. Methods 65:55-63). To assess chemotherapy/siRNA interactions 5000 cells were seeded per well on 96 well plate. After 24 hours cells were transfected with siRNA and treated with various chemotherapeutic agents at different concentrations. After 48 hours MTT (1.0 mg/ml) was added to each well and cells were incubated at 37° C. for 2 hours. The culture media was removed and formazan crystals were reabsorbed in 200 μl DMSO. Cell viability was determined by reading the absorbance of each well at 570 nm using a microplate reader (Tecan Sunrise, Biorad, UK).

HCT116 cells = experiment: MTT assay, HCT116 cell proliferation; assay type: cell-based, human; conditions: HB-EGF siRNA 50 nM; for RI value (Sexp/Sobs), antibody in combination with HBEGF siRNA: 72 hr
Experimental: FIG. 8 illustrates HCT116 cell proliferation following AREG/HB-EGF silencing by siRNA and/or Chemotherapy treatment. Cells were transfected with AREG siRNA (10 nM), HB-EGF siRNA (10 nM) or a control siRNA (10 nM). […] Cell proliferation was analysed by MTT assay 48 hr after transfection/chemotherapy
FIG. 28 illustrates HCT116 cell proliferation after treatment with AREG antibody. Cell proliferation was analysed by MTT assay 48 hr after treatment.
FIG. 30 illustrates HCT116 cell proliferation after treatment with AREG antibody. Cell proliferation was analysed by MTT assay 48 hr after treatment.
FIG. 31 illustrates HCT116 cell proliferation after treatment with AREG antibody. Cell proliferation was analysed by MTT assay 48 hr after treatment
FIG. 33 illustrates HCT116 cell proliferation following HB-EGF silencing by siRNA and/or treatment with Anti AREG antibodies (6E11 1E92D8 & 6E11 1E9 106). Cells were transfected with HB-EGF siRNA (50 nM) or a control siRNA (50 nM). Cell proliferation was analysed by MTT assay 72 hr after transfection.
Cells were seeded at 5000 cells per well in a 96 well plate or 5×10^5 cells per well in a 6 well plate. The cells were cultured for 24 hours before transfection. The siRNA was made up to 100 nM in serum free DMEM and left for 5 minutes at room temperature. The Dharmafect transfection reagent was also made up in the serum free DMEM and incubated for 5 minutes at room temperature. The transfection reagent was added to the siRNA and incubated at room temperature for 20 minutes. The media was removed from the plate wells and antibiotic free DMEM was added to the wells. After 20 minutes the siRNA was added dropwise to the wells. The plates were incubated at 37° C. for 48 hours.
Cell viability was assessed by 3-(4,5-dimethylthiazol-2-yl)-2,5-diphenyltetrazolium bromide (MTT, Sigma) assay (Mosmann, T. 1983. J. Immunol. Methods 65:55-63). To assess chemotherapy/siRNA interactions 5000 cells were seeded per well on 96 well plate. […] Cell viability was determined by reading the absorbance of each well at 570 nm using a microplate reader (Tecan Sunrise, Biorad, UK).

B1: 6E11 1E9 106: murine anti-AREG monoclonal antibody; VH Sequence ID No: 27, VL Sequence ID No: 28; 6E11 1E92D8 shown to be the same antibody (antibody, listed as Mus sp.)
VH: MECNWILPFILSVTSGVYSQVQLQQSGAELARPGASVKLSCKASGYTFTRYWMQWIKQRPGQGLEWIGAIYPGNGDIRYTQKFKGKATLTADKSSSTAYMQLSSLASEDSAVYYCARGTTPSSYWGQGTLVTVSAAKTTAPSVYPLAPVCGDTTGSSVTLGCLVKGYF
light: MMSPAQFLFLLVLWIRETSGDVVMTQTPLTLSVSIGQPASISCKSSQSLLDSDGKTYLNWLLQRPGQSPKRLIYLVSKLDSGVPDRFTGSGSGTDFTLKISRVEAEDLGVYYCWQGTHFPWTFGGGTKLEIKRADAAPTVSIFPPSSEQLTSGGASVVCFLNNFYPK
cell viability (MTT), AREG antibody (H460 lung carcinoma cell): significantly attenuates cell viability
reduction in cell growth (MTT), HBEGF siRNA and/or AREG antibody (HCT116 cells; 72 hr after transfection): ~50%
RI value (Sexp/Sobs), antibody in combination with HBEGF siRNA (HCT116 cells; synergism defined as RI>1): above 5
RI value (Sexp/Sobs), antibody in combination with HBEGF siRNA (HCT116 cells; synergism defined as RI>1, listed as 6E11 1E92D8): approximately 2
